Results from the supplement of paper PMC11417369.
± gives the standard deviation of the averaged measurements. The list shows a part of the results.

Test system: PfAP2-LT AP2 domain (GST-tagged)
Assay: gcPBM binding intensity (ln(normalized median fluorescence intensity)); higher = stronger DNA binding
Summary of the method: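 The binding buffer was 1× PBS containing 1% milk, 0.2 mg/ml BSA, 0.5% salmon testes DNA and 0.03% Triton X-100. In it, GST-tagged P. falciparum DNA-binding domains expressed in E. coli were applied for 1 h to an Agilent 4 × 180k array of primer-extended double-stranded 36-bp intergenic genomic probes plus negative controls. Binding intensity, read with Alexa488 anti-GST antibody and a 488 nm scan, is the highest Masliner-normalised natural-log median intensity across replicate spots of either probe orientation.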

| Sequence | gcPBM binding intensity (ln) |
| --- | --- |
| CATGTTATATATATATGTACTAAAAATATAATATAA [XGTACX_site1978] | 8.61 ± 0.42 |
| TTTTTTTTTTTTGGTAGTACATAAATATTTTATGGA [XGTACX_site6851] | 8.3 ± 0.46 |
| AATAAGAATTAAAAATGTACAAAAAAATGTATTTAT [XGTACX_site8005] | 8.79 ± 0.43 |
| AAGTATAAAATATTTTGTACTTAAAAAATTATATGG [XGTACX_site2180] | 8.46 ± 0.42 |
| AACAAATTTTTTATTAAACACACAAACATATATATA [CACACA_site8588] | 8.66 ± 0.44 |
| TGTGAATATATCTTTAAAAAGGATAAATAATAATTT [CACACA_negctrl_site507] | 8.47 ± 0.52 |
| GCTCATTGAAATTATACACACCAAATATATAAATAT [CACACA_site5385] | 8.89 ± 0.35 |
| AAAAAAAAAAAGATAAATACAAGTTACACAAAAAAA [GTGCAC_negctrl_site664] | 8.57 ± 0.63 |
| ACGTTGCGACGCAAGGTGCTTATTTTCTTATAAATA | 8.46 ± 0.4 |
| ATATAAAATAAAAAAAAAAAAAAAAAAAAAAAAAAA [CACACA_negctrl_site1234] | 8.22 ± 0.45 |
| TTTTTGTATCCTTTTAATATTAAATAAAAGGAATGT [CACACA_negctrl_site1468] | 8.23 ± 0.45 |
| TTAATGTTTGAAAGAGTGCACATAACAAAAAAAAAA [GTGCAC_site9623] | 8.79 ± 0.53 |
| TAATTAAAAAATGAATAAATGAATAAATAAATAAAT [CACACA_negctrl_site838] | 8.59 ± 0.48 |
| TATGAATATTGCATGTGTACCTATTATCCTTTTAAA [XGTACX_site4311] | 8.74 ± 0.42 |
| ATAATTATTTTCCCGTGTACTTATTTTTTTCAAGTA [XGTACX_site8843] | 8.82 ± 0.44 |
| TTAAAATATGTAGCTACACACACATAAACAAAATAA [CACACA_site8244] | 9.28 ± 0.42 |
| TAATTATAATAATAACGTACATATATAAAATGGTGA [XGTACX_site8434] | 8.91 ± 0.37 |
| TATATATATATATAGGTGCTATAATTTATATACACA | 9.19 ± 0.16 |
| TGTAGTCTGGAGAAAAGTACACAGTATCTGGTAGCT [XGTACX_site2012] | 8.82 ± 0.46 |
| TTTTTTTTTCTGAATTTATAATTCAAAAATATATAT [CACACA_negctrl_site300] | 8.16 ± 0.52 |
| ATAATACCCATTATCTTACAACAAAATGCAAACAAA [CACACA_negctrl_site1037] | 8.74 ± 0.41 |
| AACATAATATCATATACACACAAAAATATTGAAATA [CACACA_site2160] | 9.09 ± 0.37 |

| Sequence | gcPBM binding intensity (ln) |
| --- | --- |
| AAAAAAAAAGAAAAACGTACGTTTATTTAATATATA [XGTACX_site4018] | 8.61 ± 0.48 |
| TTATATAACTTTTCTAGTACTTGTATAAATTCCTAC [XGTACX_site3685] | 8.69 ± 0.54 |
| AAAATTAGATTATGCACACACACTTAAAAATAATAA [CACACA_site1975] | 9.32 ± 0.34 |
| AAGAACATATTATATACATGCATAATTCGATAGATT [TGCATGCA_site882] | 8.9 ± 0.35 |
| CATTTTATTCTATATGCATGTTAAAAAATGTGTTGA [TGCATGCA_site128] | 8.58 ± 0.38 |
| TAATAATAAAAAATACGTACATATTATTTATATATG [XGTACX_site853] | 8.62 ± 0.4 |
| ATATATAAGAACATATATATTGGAAATATTGAATTT [XGTACX_negctrl_site121] | 8.59 ± 0.45 |
| AATAAAAATATTATATGTACATATTTTAATATATAT [XGTACX_site1259] | 8.54 ± 0.39 |
| TTTTATTTTTTCTATACATGCATGTCCAATTTTCTT [TGCATGCA_site304] | 9.28 ± 0.54 |
| TTATGGTATAAAAAAATACACACTTATATATATTCT [CACACA_site488] | 8.73 ± 0.38 |
| TTTATTATATGCACACGTACATATAATATATATATA [XGTACX_site4108] | 8.82 ± 0.33 |
| TTTGCAACATATAAAAGTACAAATAATATATTTATT [XGTACX_site890] | 8.6 ± 0.41 |
| ATAATAAATCATCATATTACATTTATCTTTGTTGGA [CACACA_negctrl_site849] | 8.6 ± 0.59 |
| TACTTATTTTTATAGCATTTCACGGAGGTAGTAATA [CACACA_negctrl_site468] | 8.6 ± 0.39 |
| AACTGTAATTTTATACGTACATAAATAATATTATAT [XGTACX_site4277] | 8.7 ± 0.4 |
| AGCAGTTTTTTTTTTTTTTTTTTTTTTATTAAAAGC [XGTACX_negctrl_site392] | 8.51 ± 0.35 |
| TACATATATAAAAAAACACACACATATATATATATA [CACACA_site8315] | 9.665 ± 0.021 |
| TGTATAATAAGGAAGAGTACAAGTAAATACACACAT [XGTACX_site2084] | 9.37 ± 0.4 |
| TGTATTTATAGACACACACACTTTCTTTTTTTAAGA [CACACA_site7010] | 9.1 ± 0.25 |
| AACAATTAGAACTTTGCACACTTCTATATATTTTGT [CACACA_site674] | 9.36 ± 0.44 |
| AAGTGAAATAAAATATGTACATATATGTATATATAA [XGTACX_site4473] | 9.01 ± 0.4 |
| TATATATAAAATGTATGTACATATTTATTTATATAG [XGTACX_site657] | 8.53 ± 0.38 |

| Sequence | gcPBM binding intensity (ln) |
| --- | --- |
| AAAAAAAAAGAATGTGAACACACACCGTGAATATAA [CACACA_site8342] | 9.28 ± 0.4 |
| TTTTTTCTTCGTGTATTAAGTCACAATAGGAAAAAA [GTGCAC_negctrl_site644] | 8.18 ± 0.31 |
| TATATATATAACATTGTACACACAAAGAAATAATAT [CACACA_site8998] | 9.16 ± 0.43 |
| ATCGGTATATTATTACATGAATAAACTTACACACAC [TGCATGCA_negctrl_site21] | 9.53 ± 0.28 |
| TTGTATTAATAATTTTTTATATTATAGTTTATAATA [GTGCAC_negctrl_site130] | 8.37 ± 0.49 |
| TTACAAAACACTTATACACACATATATATATATATA [CACACA_site2716] | 9.785 ± 0.078 |
| TAATATATTAAAAATAGTACATAAGAAAAATAAGTA [XGTACX_site7957] | 8.79 ± 0.49 |
| CAAAATTATCAGAATCGTACATTTTTAACATATAAT [XGTACX_site7909] | 8.57 ± 0.41 |
| AAAACTATATTAATGTGTACACATCAAAATATTAAT [XGTACX_site6767] | 8.88 ± 0.49 |
| ATTATAAATATCAGTGCACACATTTCTACGCAAAGT [CACACA_site4420] | 9.18 ± 0.38 |
| TATGTAAAATGTGTTTGTACTTATTTATTATATAAA [XGTACX_site2816] | 8.59 ± 0.38 |
| AAGGAGCCTATGAACACACACATGTACAGATATTAA [CACACA_site6107] | 9.32 ± 0.52 |
| AGGAAGGAAATAAATCAACACACATATATTATATAT [CACACA_site8678] | 9.1 ± 0.58 |
| ATATTTATTTTAATTTTTCTATATAAACTATTATGA [CACACA_negctrl_site739] | 8.35 ± 0.55 |
| TTTCTAAGAAAAAAAAAAAAAAAAAAAAAGATACAA [GTGCAC_negctrl_site525] | 8.31 ± 0.49 |
| TATATATATTATATATGTACATATTGTATATTTTTG [XGTACX_site4564] | 8.85 ± 0.42 |
| TATTTTTATAATATATGTACATATATATATATATTA [XGTACX_site5343] | 8.64 ± 0.36 |
| ACATATTATATGAATACACACAAAAACTTATCGGTA [CACACA_site3439] | 9.12 ± 0.39 |
| TTGTTATATTACAGTAGTACATTTAAAATCTACTAC [XGTACX_site2620] | 8.72 ± 0.38 |
| TTTTTTTTTTTTTTTTGTACGTAAAAAAATATATAC [XGTACX_site1290] | 8.33 ± 0.41 |
| TTACATTATATACATACACACCCACCCACAAAAAAA [CACACA_site8187] | 9.77 ± 0.085 |
| AATATTTATACTATAACACACATACAGACAAAAAAA [CACACA_site6396] | 8.97 ± 0.37 |

| Sequence | gcPBM binding intensity (ln) |
| --- | --- |
| ATTTTTATTTACAACCCCAAAAAGGAAAAACATAAA [CACACA_negctrl_site1169] | 8.47 ± 0.37 |
| AAGACAATATATGCAGTGCATATACATACATATATA | 8.92 ± 0.44 |
| GCATAATATACTCTTACACACCATTTCTAAATACAT [CACACA_site4912] | 9.12 ± 0.45 |
| AAAAAAAAAAAAAAAAGTACGTATTTTTTTTAAAAT [XGTACX_site2654] | 8.55 ± 0.47 |
| ATATATATATATATATGTACATATTTTATTTGAAAT [XGTACX_site7411] | 9.495 ± 0.078 |
| ACAGGAAAAAACAATTGTACATGTATATATATATAT [XGTACX_site7677] | 9.72 ± 0.4 |
| CAAAATAAAAATTAATGTACATAAAAAATGAATATA [XGTACX_site1085] | 8.93 ± 0.45 |
| ATACATATATACATATGTACATATATATATATATAT [XGTACX_site8206] | 9.525 ± 0.021 |
| AAAAAAATAATTTGTAGTACGATTCAATGAAAAGGC [XGTACX_site1287] | 8.9 ± 0.43 |
| TAAATATTTTTTTAGACACACATATATCTATGATAT [CACACA_site1107] | 8.68 ± 0.42 |
| CCCACAAAGGAATATACACACATATATATATATATA [CACACA_site4091] | 9.95 ± 0.18 |
| ATAAAATTGTATAACTGTACATATATATATATATAT [XGTACX_site5596] | 9.59 ± 0.25 |
| TCTTTGAATTTTTTAACACACACATGGGTGGATATA [CACACA_site8474] | 9.04 ± 0.38 |
| TTGAAAATGAAAAAATGTACTTAAAAAAAAGGAACA [XGTACX_site8664] | 8.71 ± 0.54 |
| ATGCTATATTAAAAACGTACAAACTGTTTAGAAAAA [XGTACX_site8943] | 8.62 ± 0.47 |
| TTTTTTCTTAAAGACATATATTTATTTGGTAAAACA [XGTACX_negctrl_site243] | 8.21 ± 0.44 |
| TATTTTCTTTTTCTTGTACACACATAATATGGATGA [CACACA_site8168] | 9.01 ± 0.45 |
| TATTTACATTTATGTGCACACATTCCATTTGAAAGT [CACACA_site1954] | 9.18 ± 0.47 |
| CGGACATACATAGGAACATGCAAAATTTTTTATTTT [TGCATGCA_site575] | 8.79 ± 0.55 |
| AATAGAAAAAAAAAATGTACACATATAAAAGCATAT [XGTACX_site6306] | 9.12 ± 0.54 |
| TATATTATTTATTTTTGTACATATTATGAATGAATA [XGTACX_site3971] | 8.54 ± 0.47 |
| TTACCTTTAAATGGATGTACAGAAATTTAAATTGTT [XGTACX_site7044] | 8.48 ± 0.42 |
